Results taken from the supplement of paper PMC12217912.
Some of the results follow. The full chains were built here from the parent and the listed change. Inactive controls read about 0.05.

B1: TEV protease; numbered along this chain (parent)
chain: MGESLFKGPRDYNPISSSICHLTNESDGHTTSLYGIGFGPFIITNKHLFRRNNGTLVVQSLHGVFKVKDTTTLQQHLVDGRDMIIIRMPKDFPPFPQKLKFREPQREERICLVTTNFQTKSMSSMVSDTSCTFPSGDGIFWKHWIQTKDGQCGSPLVSTRDGFIVGIHSASNFTNTNNYFTSVPKNFMELLTNQEAQQWVSGWRLNADSVLWGGHKVFMVKPEEPFQPVKEATQL

Variants of: B1
Test: raw area under fraction-flipped curve 0-4 h after induction (AUC4h, not background-subtracted), DNA-recorder readout of cleavage of the substrate (dimensionless); higher = more cleavage of the substrate by the protease variant
Details: temperature: 34 °C; time window: 0-4 h after rhamnose induction
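Further: Bxb1 expression induced with 0.2% (w/v) L-rhamnose at OD600 near 0.5, cultures sampled hourly, flipped fraction per protease–substrate barcode pair counted by paired-end Illumina sequencing.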

Row | Variant | area with substrate ENLYFQC | area with substrate ENLYFQD | area with substrate ENLYFQG | area with substrate ENLYFQK | area with substrate ENLYFQL | area with substrate ENLYFQP | area with substrate ENLYFQS | area with substrate ENLYFQV | area with substrate ENLYFQW | area with substrate ENLYFQF
1 | D128T | 0.168 | 0.0906 | 0.157 | 0.0484 | 0.0471 | 0.0186 | 0.124 | 0.0534 | 0.0642 | –
2 | T132K | 0.0603 | – | – | – | – | – | 0.0565 | – | 0.0293 | 0.0576
3 | T132N | 0.0771 | – | 0.084 | 0.0656 | – | 0.0624 | 0.0801 | – | – | 0.0654
4 | S135L | 0.0543 | – | 0.061 | – | 0.06 | 0.0726 | 0.075 | – | 0.0536 | –
5 | W141F | 0.0771 | 0.0731 | 0.0897 | – | – | – | 0.0842 | 0.0718 | 0.0537 | –
6 | K142N | 0.116 | – | 0.102 | – | 0.0514 | – | 0.0934 | 0.0417 | – | –
7 | H143N | 0.0923 | – | 0.182 | 0.0272 | – | – | 0.0836 | 0.0519 | – | –
8 | T147V | 0.0851 | 0.0582 | 0.0962 | – | – | – | 0.0914 | – | – | –
9 | D149I | 0.0859 | 0.0558 | – | – | 0.0506 | – | 0.0791 | – | 0.0404 | –
10 | D149P | 0.108 | 0.0429 | – | – | 0.0479 | – | 0.0936 | – | – | 0.0629
11 | G153Q | 0.0425 | – | – | – | – | – | 0.0434 | 0.0455 | – | –
12 | S154A | 0.0995 | 0.0681 | 0.0989 | 0.0244 | 0.0512 | 0.0677 | 0.0904 | 0.0542 | – | 0.0724
13 | S154D | 0.0709 | – | 0.0601 | – | – | 0.0559 | 0.0645 | 0.0499 | – | –
14 | S154N | 0.131 | – | – | – | – | – | 0.13 | – | – | –
15 | S154V | 0.0986 | – | 0.0958 | 0.0729 | 0.0669 | – | 0.0957 | 0.0638 | – | –
16 | L156Y | 0.0632 | – | – | 0.0652 | – | 0.0542 | 0.0625 | 0.0616 | 0.0616 | –
17 | S158L | 0.0472 | – | – | – | – | – | 0.0466 | – | – | 0.024
18 | S158V | 0.065 | – | 0.0611 | 0.0544 | 0.0463 | – | 0.0535 | 0.0447 | – | –
19 | T159K | 0.104 | – | – | 0.0552 | 0.0555 | 0.0696 | 0.0919 | 0.0701 | – | –
20 | T159P | 0.104 | – | – | – | – | – | 0.112 | – | – | –

Row | Variant | area with substrate ENLYFQC | area with substrate ENLYFQD | area with substrate ENLYFQG | area with substrate ENLYFQK | area with substrate ENLYFQL | area with substrate ENLYFQP | area with substrate ENLYFQS | area with substrate ENLYFQV | area with substrate ENLYFQW | area with substrate ENLYFQF
21 | F163K | 0.123 | – | – | – | 0.046 | – | 0.0998 | – | 0.062 | 0.0663
22 | F163Y | 0.132 | 0.0858 | 0.14 | 0.0625 | 0.0711 | – | 0.104 | – | 0.0883 | –
23 | V165I | 0.118 | – | 0.0661 | – | – | – | 0.102 | 0.056 | – | –
24 | G166K | 0.0506 | 0.0721 | – | – | – | 0.0355 | 0.053 | 0.0408 | 0.0458 | 0.0598
25 | S171K | 0.125 | – | – | – | 0.0515 | – | 0.0963 | 0.0464 | 0.0674 | –
26 | N172Q | 0.0641 | – | – | – | 0.0429 | 0.071 | 0.0561 | – | – | 0.0518
27 | T174C | 0.0774 | – | – | 0.0731 | 0.0566 | – | 0.0837 | – | – | 0.0853
28 | T174E | 0.0965 | – | – | 0.0647 | 0.0567 | – | 0.0935 | – | – | –
29 | T174F | 0.0861 | – | – | – | 0.0458 | – | 0.0883 | – | – | –
30 | N175Q | 0.128 | – | – | 0.0513 | – | 0.0526 | 0.108 | – | 0.0282 | –
31 | N177G | 0.0811 | – | – | 0.056 | 0.0502 | – | 0.0725 | 0.0323 | – | –
32 | N177T | 0.173 | 0.0861 | 0.147 | 0.0644 | 0.0515 | – | 0.156 | – | 0.0732 | –
33 | N178S | 0.147 | – | 0.0967 | – | 0.0511 | 0.0589 | 0.0963 | 0.0673 | – | –
34 | N178Y | 0.199 | – | 0.111 | 0.0734 | 0.0761 | – | 0.172 | 0.0605 | – | 0.157
35 | S182C | 0.0983 | – | 0.105 | 0.0973 | – | 0.0558 | 0.114 | – | – | –
36 | S182E | 0.0658 | 0.0944 | 0.0325 | – | 0.0533 | – | 0.0791 | – | 0.0557 | –
37 | S182F | 0.048 | – | 0.0445 | 0.0394 | 0.0464 | 0.0509 | 0.0539 | 0.0569 | – | –
38 | S182V | 0.18 | – | – | – | – | – | 0.109 | – | 0.0568 | –
39 | K185A | 0.115 | – | – | – | 0.0766 | – | 0.106 | 0.0615 | 0.0637 | –

Same assay, conditions: temperature: 34 °C; time window: 0-4 h after rhamnose induction

Row | Variant | area with substrate ENLYFQN | area with substrate ENLYFQY | area with substrate ENLYFQE | area with substrate ENLYFQH | area with substrate ENLYFQM | area with substrate ENLYFQQ | area with substrate ENLYFQR | area with substrate ENLYFQT | area with substrate ENLYFQI
40 | T132K | 0.0662 | 0.0491 | – | – | – | – | – | – | –
41 | T132N | – | 0.0787 | 0.0682 | 0.0589 | 0.0684 | 0.0723 | 0.0611 | 0.0553 | –
42 | S135L | – | – | – | – | 0.0616 | – | 0.0541 | – | 0.0526
43 | W141F | 0.0755 | – | – | – | 0.081 | – | – | 0.0543 | 0.0432
44 | K142N | 0.0888 | – | – | 0.0741 | 0.0779 | – | – | 0.065 | 0.0567
45 | H143N | – | – | 0.0665 | – | 0.0673 | – | – | – | –
46 | T147V | – | 0.0652 | – | 0.0716 | – | – | 0.067 | – | 0.0542
47 | D149I | – | – | – | – | 0.057 | – | 0.0385 | – | –
48 | D149P | – | – | 0.0486 | – | – | – | – | 0.0627 | –
49 | G153Q | – | – | – | – | – | – | – | 0.0502 | 0.0335
50 | S154A | 0.0707 | – | – | – | 0.0815 | – | 0.06 | 0.0564 | –
51 | S154D | – | – | – | – | 0.0662 | – | 0.0437 | – | –
52 | S154N | – | – | – | – | – | – | – | 0.0787 | –
53 | S154V | 0.0715 | – | – | 0.0652 | 0.0765 | – | – | 0.07 | 0.0667
54 | L156Y | – | 0.059 | 0.0447 | 0.0604 | 0.0547 | – | 0.0873 | 0.0612 | 0.0378
55 | S158L | – | – | – | – | – | – | – | 0.0322 | –
56 | S158V | – | – | – | 0.0528 | 0.0644 | – | 0.0386 | 0.0611 | 0.0526
57 | T159K | – | 0.0799 | 0.0567 | – | 0.0804 | – | 0.0407 | – | –
58 | T159P | – | – | – | – | – | – | – | 0.0652 | –

Row | Variant | area with substrate ENLYFQN | area with substrate ENLYFQY | area with substrate ENLYFQE | area with substrate ENLYFQH | area with substrate ENLYFQM | area with substrate ENLYFQQ | area with substrate ENLYFQR | area with substrate ENLYFQT | area with substrate ENLYFQI
59 | F163K | 0.0652 | – | 0.0689 | 0.0724 | 0.0734 | – | – | 0.0721 | 0.0612
60 | F163Y | 0.0881 | – | – | – | – | – | 0.0742 | – | 0.0623
61 | V165I | – | 0.0776 | – | – | 0.114 | – | 0.0542 | 0.0908 | –
62 | G166K | – | – | – | – | 0.0588 | – | – | – | 0.0487
63 | S171K | – | – | – | 0.0674 | 0.0396 | – | – | – | –
64 | N172Q | 0.0603 | – | – | – | 0.0592 | – | – | – | 0.0647
65 | T174C | – | 0.0593 | – | 0.083 | – | – | – | – | 0.0602
66 | T174F | 0.0678 | 0.0604 | – | 0.0999 | – | – | 0.0675 | 0.0703 | –
67 | N175Q | 0.0819 | – | – | – | 0.0828 | – | 0.0581 | – | 0.0568
68 | N177G | – | – | – | – | 0.0486 | – | – | 0.0659 | –
69 | N177T | 0.124 | 0.101 | 0.0709 | 0.105 | 0.114 | – | 0.0629 | 0.0773 | 0.0611
70 | N178S | 0.0882 | – | – | – | – | – | – | – | –
71 | N178Y | – | 0.129 | – | 0.131 | – | – | 0.0457 | 0.0693 | 0.0643
72 | S182C | 0.0945 | – | – | – | 0.0797 | – | 0.0598 | – | –
73 | S182E | – | – | – | – | 0.0675 | – | 0.0579 | 0.0436 | –
74 | S182F | 0.0467 | 0.0842 | – | 0.052 | 0.0773 | 0.0584 | 0.058 | 0.0522 | 0.0554
75 | S182V | 0.0567 | – | – | – | – | – | – | – | –
76 | K185A | – | 0.0788 | – | – | – | – | 0.0539 | 0.0552 | –
